In all, about 33,000 sequences were measured (“E-score (-0.5 to 0.5)”: median about -0.016, highest 2% from about 0.31 on). This is one part of the list.
Each sequence was assayed against Cst6 (UniProt P40535) (assay: PBM E-score (8-mer binding enrichment) (E-score (-0.5 to 0.5)); higher = stronger / more preferred TF binding; most listed sequences are background and not binding sites). Conditions: protein concentration: 200 nM; construct: GST-DNA-binding domain.
In short: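 Yeast transcription factors, full-length or as DNA-binding domains, were expressed with a GST tag using PURExpress in vitro transcription/translation. At about 100-200 nM they were applied to universal all-10-mer Agilent arrays, double-stranded by primer extension on fresh or once-stripped slides. Fluorescent anti-GST detected bound protein, and masliner normalised the scans. E-scores for ungapped eight-base words, pooled with reverse complements, came from the Universal PBM Analysis Suite.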

| Sequence | PBM E-score |
| --- | --- |
| TATTGGGA | 0.0862 |
| GGAGGACC | -0.27 |
| CACCGATG | 0.0639 |
| CCCGATTA | 0.0746 |
| AGGACTGC | -0.332 |
| AGACTCAG | -0.285 |
| GGTACTAC | -0.0399 |
| CTTCGGGC | -0.323 |
| AGTAGCCC | -0.299 |
| CGCAGTTC | -0.106 |
| CCACTAAG | -0.209 |
| AGTGGCAT | -0.0032 |
| GCGAAGCA | -0.143 |
| GGGAAGAC | -0.271 |
| TAGCTAAA | 0.0924 |
| AGGGATGG | -0.216 |
| AGTTTTGC | 0.222 |
| CGGACTAA | -0.023 |
| CACACCAG | 0.00466 |
| ACGACGCA | 0.145 |
| AATCCCCA | -0.116 |
| CTGCACAG | -0.21 |

| Sequence | PBM E-score |
| --- | --- |
| ATCCTCAA | 0.0384 |
| GCAATCGA | -0.0177 |
| ATTACGCG | 0.326 |
| ACGTCATG | 0.495 |
| ACCAGCGA | -0.177 |
| CGGGTAAC | -0.124 |
| CAGCCGCA | -0.0628 |
| ACCTTTGA | -0.156 |
| CACCGGAA | 0.0999 |
| CCATGTGA | -0.00346 |
| AAATTAGA | 0.186 |
| CTCGTTGA | 0.0901 |
| TCCAATCA | -0.122 |
| ATTGACAG | 0.0614 |
| GAAAGTCC | -0.268 |
| GAATTCAC | 0.0689 |
| GTATCCAA | -0.168 |
| CGCTTGAG | -0.0977 |
| AAGCGACA | 0.0385 |
| AAGGTAGT | -0.0235 |
| AACGCAGC | 0.0257 |
| AGTAACGA | -0.0647 |

| Sequence | PBM E-score |
| --- | --- |
| GACACATA | 0.0617 |
| AGGAACTC | -0.0807 |
| AGATAAAA | 0.209 |
| AATTTCGT | 0.206 |
| AGGCCGCA | -0.0331 |
| ATTATATA | 0.239 |
| CCGACACA | -0.179 |
| CGATATCA | 0.145 |
| CACCGTCC | -0.173 |
| AATCGCCG | 0.195 |
| GCCGGTGA | 0.0691 |
| ACTGTTCA | -0.147 |
| TCGCTAAA | 0.115 |
| AGGTCCAT | -0.0689 |
| CACTCACA | -0.0959 |
| CATACCTC | 0.0788 |
| CCTGGGCA | -0.248 |
| ATTAAGCG | 0.108 |
| CGTCCGGA | -0.0761 |
| ACGTCTAT | 0.0358 |
| CACGTATA | 0.167 |
| GGCAAACC | -0.204 |

| Sequence | PBM E-score |
| --- | --- |
| AGCGTTCA | -0.286 |
| TAACCTCA | 0.0767 |
| CATCGGAC | -0.157 |
| AGCTATGA | 0.101 |
| AAATCTGA | 0.205 |
| GCGGTGAA | 0.0906 |
| ACCATCCA | -0.151 |
| CCATCAAG | -0.165 |
| GGACTCCA | -0.178 |
| AGAAAACG | 0.168 |
| CCCCATGA | 0.144 |
| GACCCACC | -0.203 |
| GATACCCA | -0.139 |
| AACGCTCC | -0.00595 |
| CAATCTGG | -0.096 |
| CACATTAA | -0.00666 |
| TAGATCAA | 0.0563 |
| AAAGTGAT | 0.199 |
| AAAGCGTA | -0.0932 |
| GCACGATA | 0.0369 |
| ACTAAAGC | 0.0156 |
| AGCCTGAC | -0.0605 |

| Sequence | PBM E-score |
| --- | --- |
| GCATGTAA | 0.0218 |
| ATCAGGCA | -0.0532 |
| ACCTCTCT | -0.245 |
| AAACAGCC | -0.0862 |
| GCTACGAA | 0.0568 |
| ATGATTGG | 0.0663 |
| ACTCATCC | 0.142 |
| AGTTACTA | 0.0861 |
| CGATCAAG | -0.116 |
| GACTAGGA | -0.176 |
| CTGGCCTA | -0.214 |
| GAGCAACA | -0.118 |
| CACGGCTA | 0.253 |
| TCGGACCA | -0.145 |
| CTATGACC | 0.193 |
| AACTATCG | -0.12 |
| GCGAGATA | 0.0372 |
| ACGAGAGC | -0.0859 |
| AGGGCTAA | 0.015 |
| ACTAGCTA | -0.0397 |
| CGCTTCAA | -0.0939 |
| CCTTTCGA | -0.0836 |
